Some of the results follow. The full chains were built here from the parent and the listed change. Inactive controls read about 0.05.
B1: TEV protease; numbered along this chain (parent)
chain: MGESLFKGPRDYNPISSSICHLTNESDGHTTSLYGIGFGPFIITNKHLFRRNNGTLVVQSLHGVFKVKDTTTLQQHLVDGRDMIIIRMPKDFPPFPQKLKFREPQREERICLVTTNFQTKSMSSMVSDTSCTFPSGDGIFWKHWIQTKDGQCGSPLVSTRDGFIVGIHSASNFTNTNNYFTSVPKNFMELLTNQEAQQWVSGWRLNADSVLWGGHKVFMVKPEEPFQPVKEATQL

Variants of: B1
Experiment: raw area under fraction-flipped curve 0-4 h after induction (AUC4h, not background-subtracted), DNA-recorder readout of cleavage of the substrate (dimensionless); higher = more cleavage of the substrate by the protease variant
Conditions: temperature: 34 °C; time window: 0-4 h after rhamnose induction
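Note: Bxb1 expression induced with 0.2% (w/v) L-rhamnose at OD600 near 0.5, cultures sampled hourly, flipped fraction per protease–substrate barcode pair counted by paired-end Illumina sequencing.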

Variant	area with substrate ENLYEQS	area with substrate ENLYHQS	area with substrate ENLYIQS	area with substrate ENLYKQS	area with substrate ENLYMQS	area with substrate ENLYNQS	area with substrate ENLYPQS	area with substrate ENLYQQS	area with substrate ENLYRQS	area with substrate ENLYSQS
MGESLFKGPRDYNPISSSICHLTNESDGHTTSLYGIGFGPFIINNKHLFRRNNGTLVVQSLHGVFKVKDTTTLQQHLVDGRDMIIIRMPKDFPPFPQKLKFREPQREERICLVTTNFQTKSMSSMVSDTSCTFPSGDGIFWKHWIQTKDGQCGSPLVSTRDGFIVGIHSASNFTNTNNYFTSVPKNFMELLTNQEAQQWVSGWRLNADSVLWGGHKVFMVKPEEPFQPVKEATQL [T44N]	0.0266	0.0424	0.045	0.0337	0.0473	0.0378	0.0324	0.0465	0.0478	0.0486
MGESLFKGPRDYNPISSSICHLTNESDGHTTSLYGIGFGPFIITNKHLFRRNNGTLVVQSLHGVFKVKDTTTLQQHLVDGRDMIIIRMPKDFPPFPQKLKFREPQREERICLVTTNFQTKSMSSMVSDTSCTFPSGDGIFWKHWIQTKDGQCGSPLVSTRDGFIVGIHSASNFKNTNNYFTSVPKNFMELLTNQEAQQWVSGWRLNADSVLWGGHKVFMVKPEEPFQPVKEATQL [T174K]				0.0287		0.0845	0.0637		0.0427	
MGESLFKGPRDYNPISSSICHLTNESDGHTTSLYGIGFGPFIITNKHLFRRNNGTLVVQSLHGVFKVKDTTTLQQHLVDGRDMIIIRMPKDFPPFPQKLKFREPQREERICLVTTNFQTKSMSSMVSDTSCTFPSGDGIFWKHWIQTKDGQCGSPLVSTRDGFIVGIHSASNFSNTNNYFTSVPKNFMELLTNQEAQQWVSGWRLNADSVLWGGHKVFMVKPEEPFQPVKEATQL [T174S]									0.0607	0.0721
MGESLFKGPRDYNPISSSICHLTNESDQHTTSLYGIGFGPFIITNKHLFRRNNGTLVVQSLHGVFKVKDTTTLQQHLVDGRDMIIIRMPKDFPPFPQKLKFREPQREERICLVTTNFQTKSMSSMVSDTSCTFPSGDGIFWKHWIQTKDGQCGSPLVSTRDGFIVGIHSASNFTNTNNYFTSVPKNFMELLTNQEAQQWVSGWRLNADSVLWGGHKVFMVKPEEPFQPVKEATQL [G28Q]	0.0651	0.0577			0.118	0.0589	0.0562	0.0542	0.0617	0.0596
MGESLFKGPRDYNPISSSICHLTNESDGHTTSLYGIGFGPFIITNKHLFRRNNGTLVVQSLHGVFKVKDTTTLQQHLVDGRHMIIIRMPKDFPPFPQKLKFREPQREERICLVTTNFQTKSMSSMVSDTSCTFPSGDGIFWKHWIQTKDGQCGSPLVSTRDGFIVGIHSASNFTNTNNYFTSVPKNFMELLTNQEAQQWVSGWRLNADSVLWGGHKVFMVKPEEPFQPVKEATQL [D82H]	0.0577	0.0539	0.0555	0.0602		0.0664	0.0503		0.0543	0.0531
MGCSLFKGPRDYNPISSSICHLTNESDGHTTSLYGIGFGPFIITNKHLFRRNNGTLVVQSLHGVFKVKDTTTLQQHLVDGRDMIIIRMPKDFPPFPQKLKFREPQREERICLVTTNFQTKSMSSMVSDTSCTFPSGDGIFWKHWIQTKDGQCGSPLVSTRDGFIVGIHSASNFTNTNNYFTSVPKNFMELLTNQEAQQWVSGWRLNADSVLWGGHKVFMVKPEEPFQPVKEATQL [E3C]	0.0743	0.0607			0.101	0.0938				
MGESLFKGPRDYNPISSSICHLTNESDGHTTSLYGIGFGPFIITNKHLFRRNNGTLVVQSLHGVFKVKDTTTLQQHLVDGRDMIIIRMPKDFPPFPQKLKFREPQREERICLVTTNFQTKSMSSMVSDTSCTFPSGDGIFWKHWIQTKDGQCGSPLVSTRDGFIVGIHSASNFTNTNAYFTSVPKNFMELLTNQEAQQWVSGWRLNADSVLWGGHKVFMVKPEEPFQPVKEATQL [N178A]		0.0501					0.123	0.0821		0.0693

Same assay, conditions: temperature: 34 °C; time window: 0-4 h after rhamnose induction

Variant	area with substrate ENLYTQS	area with substrate ENLYYQS	area with substrate ENLYGQS	area with substrate ENLYLQS	area with substrate ENLYVQS	area with substrate ENLYWQS
MGESLFKGPRDYNPISSSICHLTNESDGHTTSLYGIGFGPFIINNKHLFRRNNGTLVVQSLHGVFKVKDTTTLQQHLVDGRDMIIIRMPKDFPPFPQKLKFREPQREERICLVTTNFQTKSMSSMVSDTSCTFPSGDGIFWKHWIQTKDGQCGSPLVSTRDGFIVGIHSASNFTNTNNYFTSVPKNFMELLTNQEAQQWVSGWRLNADSVLWGGHKVFMVKPEEPFQPVKEATQL [T44N]	0.0483	0.0431				
MGESLFKGPRDYNPISSSICHLTNESDGHTTSLYGIGFGPFIITNKHLFRRNNGTLVVQSLHGVFKVKDTTTLQQHLVDGRDMIIIRMPKDFPPFPQKLKFREPQREERICLVTTNFQTKSMSSMVSDTSCTFPSGDGIFWKHWIQTKDGQCGSPLVSTRDGFIVGIHSASNFKNTNNYFTSVPKNFMELLTNQEAQQWVSGWRLNADSVLWGGHKVFMVKPEEPFQPVKEATQL [T174K]		0.0784	0.0711			
MGESLFKGPRDYNPISSSICHLTNESDGHTTSLYGIGFGPFIITNKHLFRRNNGTLVVQSLHGVFKVKDTTTLQQHLVDGRDMIIIRMPKDFPPFPQKLKFREPQREERICLVTTNFQTKSMSSMVSDTSCTFPSGDGIFWKHWIQTKDGQCGSPLVSTRDGFIVGIHSASNFSNTNNYFTSVPKNFMELLTNQEAQQWVSGWRLNADSVLWGGHKVFMVKPEEPFQPVKEATQL [T174S]		0.0663				
MGESLFKGPRDYNPISSSICHLTNESDQHTTSLYGIGFGPFIITNKHLFRRNNGTLVVQSLHGVFKVKDTTTLQQHLVDGRDMIIIRMPKDFPPFPQKLKFREPQREERICLVTTNFQTKSMSSMVSDTSCTFPSGDGIFWKHWIQTKDGQCGSPLVSTRDGFIVGIHSASNFTNTNNYFTSVPKNFMELLTNQEAQQWVSGWRLNADSVLWGGHKVFMVKPEEPFQPVKEATQL [G28Q]				0.0736	0.12	0.0825
MGESLFKGPRDYNPISSSICHLTNESDGHTTSLYGIGFGPFIITNKHLFRRNNGTLVVQSLHGVFKVKDTTTLQQHLVDGRHMIIIRMPKDFPPFPQKLKFREPQREERICLVTTNFQTKSMSSMVSDTSCTFPSGDGIFWKHWIQTKDGQCGSPLVSTRDGFIVGIHSASNFTNTNNYFTSVPKNFMELLTNQEAQQWVSGWRLNADSVLWGGHKVFMVKPEEPFQPVKEATQL [D82H]					0.0416	0.0167
MGCSLFKGPRDYNPISSSICHLTNESDGHTTSLYGIGFGPFIITNKHLFRRNNGTLVVQSLHGVFKVKDTTTLQQHLVDGRDMIIIRMPKDFPPFPQKLKFREPQREERICLVTTNFQTKSMSSMVSDTSCTFPSGDGIFWKHWIQTKDGQCGSPLVSTRDGFIVGIHSASNFTNTNNYFTSVPKNFMELLTNQEAQQWVSGWRLNADSVLWGGHKVFMVKPEEPFQPVKEATQL [E3C]					0.163	
MGESLFKGPRDYNPISSSICHLTNESDGHTTSLYGIGFGPFIITNKHLFRRNNGTLVVQSLHGVFKVKDTTTLQQHLVDGRDMIIIRMPKDFPPFPQKLKFREPQREERICLVTTNFQTKSMSSMVSDTSCTFPSGDGIFWKHWIQTKDGQCGSPLVSTRDGFIVGIHSASNFTNTNAYFTSVPKNFMELLTNQEAQQWVSGWRLNADSVLWGGHKVFMVKPEEPFQPVKEATQL [N178A]						0.102

— the supplement of paper PMC12217912
